In all, about 43,000 compounds went through this assay and about 200 (0.47%) were called active. Inconclusive results (about 12%) are left out. Calls come from the whole dose curve; as a rule, active = well fitted cell-killing curve with a large enough effect; inconclusive = small, poorly fitted or top-dose-only effect, or effect the other way; inactive = flat fitted curve, though single readings scatter. The list shows a part of the results.
Assay: Cell viability qHTS assay in S16 Pmp22-F2sN cells; note: nearly all actives have a fitted effect of over 65% in size
Settings: S16 Pmp22-F2sN Schwann cells viability, CellTiter-Glo, 24 h; series mostly up to 57.5 µM; activity change, negative = cytotoxicity: at the top concentration
Procedure, shortened: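 Used to flag compounds lowering reporter output through toxicity, this quantitative HTS measures ATP-based CellTiter-Glo luminescence in S16 Pmp22-F2sN Schwann cells after 24 h compound exposure at 37C.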
% is set by controls: 0 for no effect and ±100 for the full control effect; potency is the fitted concentration of half-maximal effect.

| Structure (SMILES) | activity change, negative = cytotoxicity | Potency |
| --- | --- | --- |
| Cc1cccc(C)c1NC(=O)c1ccc2nc(CCc3ccccc3)oc2c1 | inactive: -27.1% | – |
| CC1=C(C(=O)Nc2ccccc2)C(c2ccncc2)n2nc(SCc3ccccc3)nc2N1 (stereo not drawn) | inactive: 16.4% | – |
| Cn1c(=O)c2sccc2n2c(CCCC(=O)Nc3ccc(F)c(F)c3)nnc12 | inactive: -3.49% | – |
| COc1cccc(-c2cc(C(F)(F)F)nc(NCc3ccc(F)cc3)n2)c1 | inactive: 6.25% | – |
| COc1ccc(CCNC(=O)c2ccc3c(c2)nc2n3CCOC2)cc1OC | inactive: 20.9% | – |
| O=C(NCc1ccccc1Cl)C1CCCN(c2nc3ccccc3n3cccc23)C1 (stereo not drawn) | inactive: -8.78% | – |
| Cc1ccc(C)c(S(=O)(=O)NCC(c2ccc(N(C)C)cc2)N2CCOCC2)c1 (stereo not drawn) | inactive: 0.757% | – |
| Cc1cccc(-n2cc(-c3ccccc3)nc2SCC(=O)Nc2ccccc2Cl)c1 | inactive: -6.95% | – |
| Cc1ccc(C)c(NC(=O)C(C)N(c2ccccc2)S(C)(=O)=O)c1 (stereo not drawn) | inactive: 15.4% | – |
| Cc1oc2ncn(CC(C)C)c(=O)c2c1C(=O)Nc1ccc(Cl)cn1 | inactive: 7.93% | – |
| COc1ccc(-n2c(-c3ccc(Cl)cc3)cc3c2CC(C)(C)CC3=O)c(OC)c1 | inactive: -8.2% | – |
| CCOC(=O)c1sc(NC(=O)c2nc(SC)ncc2Cl)c(C(=O)OCC)c1C | inactive: -4.92% | – |
| Cc1cccc(OCCn2nnc3sc4c(c3c2=O)CCCC4)c1 | inactive: 7.85% | – |
| CC(C)c1ccc(NS(=O)(=O)c2ccc3[nH]cc(C(=O)NC4CCCCC4)c(=O)c3c2)cc1 | inactive: -5.79% | – |
| CCOc1ccc(CNCCNC(=O)c2nonc2N)cc1 | inactive: 7.59% | – |
| O=C(NCCc1ccc(F)cc1)C(=O)NCC(c1cccs1)S(=O)(=O)c1cccs1 (stereo not drawn) | inactive: -9.66% | – |
| COc1ccc(-c2cc(-c3ccccc3)nc3c2COc2ccc(Cl)cc2-3)cc1 | inactive: 26.1% | – |
| COc1ccc(NC(=O)Nc2cn(CC(C)C)c(=O)c3ccccc23)c(OC)c1 | inactive: -4.89% | – |
| CCOC(=O)N1CCC(NC(=O)c2cnn(-c3cccc(C)c3)c2-n2cccc2)CC1 | inactive: 4.28% | – |
| CC(=O)N1CCCc2cc(S(=O)(=O)N3CCC(C(=O)NC4CCCCC4)CC3)ccc21 | inactive: 6.5% | – |
| CCN1C(=O)C(O)(c2c(C)[nH]c3ccccc23)c2ccccc21 (stereo not drawn) | inactive: -11.4% | – |
| COc1ccc(NC(=O)CSC2=Nc3ccccc3C3=NC(CCC(=O)NCCc4ccccc4)C(=O)N23)cc1 (stereo not drawn) | inactive: 1.76% | – |
| CC(C)(C)OC(=O)N1CCC(c2c(C(=O)N3CCN(C4CCCCC4)CC3)cnn2-c2cccc(Cl)c2)CC1 | inactive: -27.7% | – |
| COC(=O)c1ccc(NS(=O)(=O)c2ccc3[nH]c4c(c3c2)CCCCC4)cc1 | inactive: -5.84% | – |

| Structure (SMILES) | activity change, negative = cytotoxicity | Potency |
| --- | --- | --- |
| COc1cccc(N2C(=O)CSC23C(=O)N(CC(=O)Nc2cc(C)ccc2C)c2ccccc23)c1 (stereo not drawn) | inactive: 2.5% | – |
| COc1ccc(OC)c(CCNC(=O)CCCc2nnc3n(C)c(=O)c4sccc4n23)c1 | inactive: 22.7% | – |
| COC(=O)c1ccc(NC(=O)c2nn(C)c3c2CS(=O)(=O)c2ccccc2-3)cc1 | inactive: 3.7% | – |
| COc1cc(CN2CCc3nc(Nc4ccc5c(c4)OCCO5)ncc3C2)cc(OC)c1OC | inactive: -3.94% | – |
| Cc1ccc(Cn2c(C)c(CNC3CCCCC3)c(C(=O)O)c2C)cc1 | inactive: 7% | – |
| CCC(=O)N1CCc2cc(S(=O)(=O)NC(C(=O)NCc3ccc(OC)cc3)C(C)C)ccc21 (stereo not drawn) | inactive: -0.681% | – |
| Cc1ccc(Cl)cc1NC(=O)c1oc2ccc(S(=O)(=O)N3CCC4(CC3)OCCO4)cc2c1C | inactive: 3.5% | – |
| Cc1cc(C)c(NC(=O)c2sc3nc(C)cc(C)c3c2N)c(C)c1 | inactive: -1.14% | – |
| COc1ccc(C)cc1NC(=O)CN1CCN(CC(=O)Nc2ccccc2F)CC1 | inactive: 3.68% | – |
| Cc1ccc2sc(N3CCN(C(=O)C4COc5ccccc5O4)CC3)nc2c1C (stereo not drawn) | inactive: 5.35% | – |
| COc1ccc2[nH]cc(CCNC(=O)Nc3ccccc3C)c2c1 | inactive: -11.2% | – |
| CC1CCN(S(=O)(=O)c2ccc3nc(-c4cccnc4)cc(C(=O)NCCCOC(C)C)c3c2)CC1 | inactive: 3.38% | – |
| COc1ccc(CCNC(=O)c2ccc(CS(=O)(=O)c3ccc(C)cc3)o2)cc1OC | inactive: -2.98% | – |
| COc1cccc(N2CCN(S(=O)(=O)c3ccc(-c4cnc(C5CC5)o4)cc3)CC2)c1 | – | active: 15.8 µM |
| CCOC(=O)C1CCCN(CCC(=O)Nc2ccc(OC)cc2OC)C1 (stereo not drawn) | inactive: 12.7% | – |
| O=C(Nc1c(C(=O)N2CCN(c3ccc(F)cc3)CC2)oc2ccccc12)c1ccco1 | inactive: -5.6% | – |
| Cc1cccc(-n2ccnc2SCC(=O)Nc2ccccc2C(F)(F)F)c1 | inactive: 0.973% | – |
| O=C(CSc1nc2ccccc2n1Cc1ccc(F)c(Cl)c1)N1CCN(c2ccc(F)cc2)CC1 | inactive: 17.7% | – |
| COc1ccc(CNC(=O)CCc2c(C)nc3c(c2C)c(=O)n(C)c(=O)n3C)cc1 | inactive: -8.89% | – |
| CCn1cc(C(=O)NCCc2ccccc2)c(=O)c2cc(S(=O)(=O)N3CCOCC3)ccc21 | inactive: -1.19% | – |
| CCCc1nn2c(=O)cc(COC(=O)c3ccc(NC(=O)c4cccs4)cc3)nc2s1 | inactive: -47.7% | – |
| CCc1ccc(NC(=O)CSC2=Nc3ccccc3C3=NC(CCC(=O)NCc4cccs4)C(=O)N23)cc1 (stereo not drawn) | inactive: -4.86% | – |
| CCC(=O)N1CCc2cc(Br)cc(S(=O)(=O)CCC(=O)NCc3ccccc3)c21 | inactive: 0.0911% | – |
| COc1cccc(NC(=O)c2cc(CN3CCOCC3)on2)c1 | inactive: -3.95% | – |

From PubChem BioAssay AID1508642 (National Center for Advancing Translational Sciences (NCATS), 2021)
